Substitutions are numbered along the chain they refer to; changes in the protein carry UniProt numbers. The list shows a part of the results.
T1: RBFOX1 RRM (Homo sapiens, UniProt Q9NWB1 109-208)
T1 sequence: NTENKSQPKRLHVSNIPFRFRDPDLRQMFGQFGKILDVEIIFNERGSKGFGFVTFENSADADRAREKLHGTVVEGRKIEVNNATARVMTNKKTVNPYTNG

B1: AGGAGGG (DNA:RNA)
RNA: GGGAGACCGGAAUUCAGAUUGUCCAGGAGGGUUAAAUCCCGUCGUAGCCACCA
DNA 1: CAATCTGAATTCCGGTCTCCC
DNA 2: TGGTGGCTACGACGGGATT
B2: GAUGAUU (DNA:RNA)
RNA: GGGAGACCGGAAUUCAGAUUGUCCGAUGAUUUUAAAUCCCGUCGUAGCCACCA
DNA 1: CAATCTGAATTCCGGTCTCCC
DNA 2: TGGTGGCTACGACGGGATT
B3: UAGACGU (DNA:RNA)
RNA: B1 RNA with A25U, G26A, G29C, G31U
DNA 1: CAATCTGAATTCCGGTCTCCC
DNA 2: TGGTGGCTACGACGGGATT
B4: GUUAAAG (DNA:RNA)
RNA: B2 RNA with A26U, G28A, U30A, U31G
DNA 1: CAATCTGAATTCCGGTCTCCC
DNA 2: TGGTGGCTACGACGGGATT
B5: AUCAAUC (DNA:RNA)
RNA: B1 RNA with G26U, G27C, G29A, G30U, G31C
DNA 1: CAATCTGAATTCCGGTCTCCC
DNA 2: TGGTGGCTACGACGGGATT
B6: GUCCGAU (DNA:RNA)
RNA: B2 RNA with A26U, U27C, G28C, A29G, U30A
DNA 1: CAATCTGAATTCCGGTCTCCC
DNA 2: TGGTGGCTACGACGGGATT
B7: GUCGAAU (DNA:RNA)
RNA: B2 RNA with A26U, U27C, U30A
DNA 1: CAATCTGAATTCCGGTCTCCC
DNA 2: TGGTGGCTACGACGGGATT
B8: AGAAAGU (DNA:RNA)
RNA: B1 RNA with G27A, G29A, G31U
DNA 1: CAATCTGAATTCCGGTCTCCC
DNA 2: TGGTGGCTACGACGGGATT
B9: UAUCAAC (DNA:RNA)
RNA: B2 RNA with G25U, G28C, U30A, U31C
DNA 1: CAATCTGAATTCCGGTCTCCC
DNA 2: TGGTGGCTACGACGGGATT
B10: UUAUUGC (DNA:RNA)
RNA: B1 RNA with A25U, G26U, G27A, A28U, G29U, G31C
DNA 1: CAATCTGAATTCCGGTCTCCC
DNA 2: TGGTGGCTACGACGGGATT
B11: ACACAAU (DNA:RNA)
RNA: B2 RNA with G25A, A26C, U27A, G28C, U30A
DNA 1: CAATCTGAATTCCGGTCTCCC
DNA 2: TGGTGGCTACGACGGGATT
B12: CCAUGUU (DNA:RNA)
RNA: B2 RNA with G25C, A26C, U27A, G28U, A29G
DNA 1: CAATCTGAATTCCGGTCTCCC
DNA 2: TGGTGGCTACGACGGGATT
B13: CAUGACG (DNA:RNA)
RNA: B2 RNA with G25C, U30C, U31G
DNA 1: CAATCTGAATTCCGGTCTCCC
DNA 2: TGGTGGCTACGACGGGATT
B14: AGAGGCU (DNA:RNA)
RNA: B1 RNA with G27A, A28G, G30C, G31U
DNA 1: CAATCTGAATTCCGGTCTCCC
DNA 2: TGGTGGCTACGACGGGATT
B15: AGUGAGC (DNA:RNA)
RNA: B1 RNA with G27U, A28G, G29A, G31C
DNA 1: CAATCTGAATTCCGGTCTCCC
DNA 2: TGGTGGCTACGACGGGATT
B16: AUCAAGC (DNA:RNA)
RNA: B1 RNA with G26U, G27C, G29A, G31C
DNA 1: CAATCTGAATTCCGGTCTCCC
DNA 2: TGGTGGCTACGACGGGATT
B17: UAAUCAU (DNA:RNA)
RNA: B2 RNA with G25U, U27A, G28U, A29C, U30A
DNA 1: CAATCTGAATTCCGGTCTCCC
DNA 2: TGGTGGCTACGACGGGATT
B18: UUACACC (DNA:RNA)
RNA: B2 RNA with G25U, A26U, U27A, G28C, U30C, U31C
DNA 1: CAATCTGAATTCCGGTCTCCC
DNA 2: TGGTGGCTACGACGGGATT
B19: GAACAGC (DNA:RNA)
RNA: B2 RNA with U27A, G28C, U30G, U31C
DNA 1: CAATCTGAATTCCGGTCTCCC
DNA 2: TGGTGGCTACGACGGGATT
B20: CGGAUCA (DNA:RNA)
RNA: B1 RNA with A25C, G29U, G30C, G31A
DNA 1: CAATCTGAATTCCGGTCTCCC
DNA 2: TGGTGGCTACGACGGGATT

Target: T1, RBFOX1 RRM
Experiment: EMSA; HiTS-Eq, 1 nM pool, 10 min; buffer printed only for the single-RNA assays: 10 mM Tris pH 7.5, 150 mM NaCl, 3.4 mM EDTA, 0.001% NP-40, 30 C
Details: tags: His6 N-terminal (pET28a); label: 5' 32P
Summary of the method: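 Relative association constants, normalised to the cognate motif, were derived by comparing read counts of each RNA species with those of the control reaction. The RNA sequenced was the free fraction, separated by 8% native PAGE after a 10 min equilibration in 50 µL of 1 nM 5′-radiolabelled RNA (7 randomized nucleotides) with increasing concentrations of purified wild-type or mutant RbFox RRM.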

Binder | binding signal
B1 | 0.0138 KA relative to UGCAUGU
B2 | 0.0183 KA relative to UGCAUGU
B3 | 0.00788 KA relative to UGCAUGU
B4 | 0.0151 KA relative to UGCAUGU
B5 | 0.0024 KA relative to UGCAUGU
B6 | 0.0163 KA relative to UGCAUGU
B7 | 0.0126 KA relative to UGCAUGU
B8 | 0.00913 KA relative to UGCAUGU
B9 | 0.00504 KA relative to UGCAUGU
B10 | 0.0198 KA relative to UGCAUGU
B11 | 0.000254 KA relative to UGCAUGU
B12 | 0.0119 KA relative to UGCAUGU
B13 | 0.00578 KA relative to UGCAUGU
B14 | 0.00967 KA relative to UGCAUGU
B15 | 0.0157 KA relative to UGCAUGU
B16 | 0.002 KA relative to UGCAUGU
B17 | 0.00288 KA relative to UGCAUGU
B18 | 0.00125 KA relative to UGCAUGU
B19 | 0.00433 KA relative to UGCAUGU
B20 | 0.0199 KA relative to UGCAUGU
